Test results published in the supplement of paper PMC9446081.
The whole screen tested about 39,000 compounds, of which about 220 (0.56%) showed activity. The list shows a part of the results.

system: Escherichia coli K-12 BW25113; test: relative growth (OD600 normalised to plate interquartile mean) (fraction); higher = less growth inhibition, active = 0.2 or less; conditions: 50 µM; LB; incubation time: overnight (16-24 h)
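Note: static incubation at 37 °C against the wild-type strain, values averaged over two biological replicates.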

Row | SMILES | relative growth
1 | Cc1noc(C)c1S(=O)(=O)N(C)C[C@@H]1Oc2ccc(NS(=O)(=O)c3cccs3)cc2C(=O)N([C@H](C)CO)C[C@@H]1C | inactive: 0.962
2 | Cc1noc(C)c1S(=O)(=O)Nc1ccc2c(c1)C(=O)N([C@@H](C)CO)C[C@H](C)[C@@H](CN(C)Cc1ccc(Oc3ccccc3)cc1)O2 | inactive: 0.989
3 | COc1ccc(cc1)CN1C[C@]2(CN(C2)C(=O)Cc2ccncc2)c2c([nH]c3cc(ccc23)OC)[C@@H]1CO | inactive: 0.992
4 | C[C@@H]1CN([C@@H](C)CO)C(=O)c2cc(NC(=O)Nc3ccc(C(F)(F)F)cc3)ccc2O[C@H]1CN(C)S(=O)(=O)c1ccc(F)cc1 | inactive: 1
5 | NC(=O)N1CCC(CC(=O)N2CCC([C@H]3c4ncc(Br)cc4CCc4cc(Cl)cc(Br)c43)CC2)CC1 | inactive: 1.02
6 | C[C@H](CO)N1C[C@H](C)[C@@H](CN(C)Cc2ccc3c(c2)OCO3)OCCCC[C@H](C)Oc2ccc(NC(=O)Nc3ccc(C(F)(F)F)cc3)cc2C1=O | inactive: 1.01
7 | C[C@@H]1CN([C@H](C)CO)C(=O)CCCn2cc(nn2)CO[C@@H]1CN(C)C(=O)C1CC1 | inactive: 0.97
8 | Cc1noc(C)c1NC(=O)Nc1ccc2c(c1)C(=O)N([C@H](C)CO)C[C@@H](C)[C@H](CN(C)C(=O)Nc1c(C)noc1C)OCCCC[C@@H](C)O2 | inactive: 1.01
9 | Cc1ccc(S(=O)(=O)N(C)C[C@H]2OCCCC[C@@H](C)Oc3ccc(NS(=O)(=O)c4ccc(F)cc4)cc3C(=O)N([C@H](C)CO)C[C@@H]2C)cc1 | inactive: 1.01
10 | O=C(c1cnc2ccccc2c1)C1CC1 | inactive: 1.01
11 | C[C@H]1CCCCO[C@@H](CN(C)C(=O)Nc2ccccc2)[C@@H](C)CN([C@@H](C)CO)C(=O)c2cc(NS(=O)(=O)c3ccc(F)cc3)ccc2O1 | inactive: 1.02
12 | C[C@@H]1CN([C@H](C)CO)C(=O)c2cc(NC(=O)C3CCCCC3)ccc2O[C@@H](C)CCCCO[C@@H]1CN(C)Cc1ccncc1 | inactive: 0.997
13 | Cc1noc(C)c1NC(=O)Nc1ccc2c(c1)C(=O)N([C@@H](C)CO)C[C@@H](C)[C@H](CN(C)S(=O)(=O)c1ccc(Cl)cc1)OCCCC[C@@H](C)O2 | inactive: 1.02
14 | C=CC(=O)Nc1cccc([C@@H](CCc2ccc(OC)c(OC)c2)OC(=O)[C@@H]2CCCCN2C(=O)C(=O)C(C)(C)CC)c1 | inactive: 1.02
15 | COc1cccc(-c2ccc3c(c2)O[C@H](CN(C)C(=O)C2CCC2)[C@@H](C)CN([C@@H](C)CO)S3(=O)=O)c1 | inactive: 1.02
16 | CCOC(=O)c1cc2c(c(-c3ccccc3)n1)[C@@H](CCO[Si](C)(C)C(C)(C)C)N([S@](=O)C(C)(C)C)C2 | inactive: 1.02
17 | CCOC(=O)CCCCCC(=O)Nc1ccc2c(c1)C(=O)N([C@@H](C)CO)C[C@@H](C)[C@H](CN(C)S(=O)(=O)c1cccs1)OCCCC[C@H](C)O2 | inactive: 0.991
18 | Cc1ccc(S(=O)(=O)Nc2ccc3c(c2)C(=O)N([C@H](C)CO)C[C@@H](C)[C@H](CN(C)S(=O)(=O)c2ccc(Cl)cc2)OCCCC[C@H](C)O3)cc1 | inactive: 1.05
19 | COc1ccccc1CNC(=O)C[C@@H]1C[C@@H]2c3cc(NC(=O)NC4CCCC4)ccc3O[C@@H]2[C@H](CO)O1 | inactive: 0.983

Row | SMILES | relative growth
20 | CC1(C)OC(=O)N(CCCC(=O)O)[C@@]1(C)O | inactive: 1.02
21 | CC[C@@H](O[Si](C#C[Si](C(C)C)(C(C)C)C(C)C)(C(C)C)C(C)C)c1cn([C@H](C)c2ccccc2)nn1 | inactive: 0.964
22 | C[C@H]1CN([C@@H](C)CO)C(=O)c2cccc(NS(=O)(=O)c3ccc(F)cc3)c2O[C@H]1CN(C)S(=O)(=O)c1cccs1 | inactive: 0.97
23 | C[C@@H]1CN([C@@H](C)CO)C(=O)c2cc(NS(=O)(=O)c3ccc(F)cc3)ccc2O[C@@H](C)CCCCO[C@@H]1CN(C)Cc1ccc(C(=O)O)cc1 | inactive: 0.973
24 | C[C@H]1CN([C@@H](C)CO)C(=O)c2cc(NC(=O)Nc3ccc(C(F)(F)F)cc3)ccc2O[C@@H]1CN(C)C(=O)NC1CCCCC1 | inactive: 1.01
25 | C[C@H]1CCCCO[C@H](CN(C)C(=O)Nc2cccc3ccccc23)[C@@H](C)CN([C@@H](C)CO)C(=O)c2cc(NC(=O)Nc3ccccc3)ccc2O1 | inactive: 1.01
26 | O=C(O)c1ccc2nncn2c1 | inactive: 0.984
27 | O=c1[nH]c(=O)n(C2CC(O)C(CO)O2)cc1C=CBr (stereo not drawn) | inactive: 0.919
28 | C[C@@H]1CN([C@@H](C)CO)C(=O)Cc2cc(NS(=O)(=O)c3ccc(F)cc3)ccc2O[C@@H]1CN(C)Cc1ccc(Oc2ccccc2)cc1 | inactive: 0.989
29 | CCc1nccn1CC(=O)N[C@H]1C[C@@H](C(=O)OC)N(C)C1 | inactive: 1.02
30 | C[C@@H]1CN([C@H](C)CO)S(=O)(=O)c2ccc(-c3cncnc3)cc2O[C@H]1CN(C)C(=O)C1CCCCC1 | inactive: 1
31 | COC[C@H]1CN(C(=O)c2cscn2)N1C | inactive: 0.895
32 | C[C@@H]1CCCCO[C@H](CN(C)C(=O)Nc2cccc3ccccc23)[C@@H](C)CN([C@H](C)CO)C(=O)c2cc(NS(=O)(=O)c3cccs3)ccc2O1 | inactive: 1.01
33 | COc1ccc(S(=O)(=O)N(C)C[C@H]2Oc3ccc(NC(=O)CCCN(C)C)cc3C(=O)N([C@H](C)CO)C[C@H]2C)cc1 | inactive: 0.995
34 | C[C@@H]1CN([C@@H](C)CO)C(=O)c2cc(NC(=O)CCCCCC(=O)Nc3ccccc3N)ccc2O[C@H]1CN(C)Cc1ccc(C(F)(F)F)cc1 | inactive: 0.974
35 | C[C@@H]1CN([C@@H](C)CO)C(=O)c2cc(NC(=O)Cc3ccccc3)ccc2O[C@@H]1CN(C)S(C)(=O)=O | inactive: 0.969
36 | CC1(C)OC2COC3(COS(N)(=O)=O)OC(C)(C)OC3C2O1 (stereo not drawn) | inactive: 0.85
37 | COc1cccc(S(=O)(=O)N(C)C[C@@H]2OCc3cn(nn3)CCCC(=O)N([C@@H](C)CO)C[C@@H]2C)c1 | inactive: 0.968
38 | CCS(=O)(=O)Nc1ccc2c(c1)C(=O)N(C)C[C@H](OC)[C@@H](C)CN(Cc1ccccn1)[C@@H](C)CO2 | inactive: 1.01
